Source: PubChem BioAssay AID624418 (National Center for Advancing Translational Sciences (NCATS), 2012)
In all, about 410,000 compounds went through this assay and about 530 (0.13%) were called active. The inconclusive results got no clear call from the source; some entries with a clear call stand among them for comparison. Calls come from the whole dose curve; as a rule, active = well fitted inhibition curve with a large enough effect; inconclusive = small, poorly fitted or top-dose-only effect, or another doubt; inactive = no such curve, though single readings can be large or run the other way. Where the call is inconclusive, the potency comes from a doubtful curve fit.

Test: qHTS of GLP-1 Receptor Inverse Agonists: Cytotox Screen
Conditions: HEK293 cAMP-luciferase reporter cells, luminescence, 24 h; series mostly up to 38.3 µM
Procedure, shortened: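 Seeding density was 200 cells/uL; after overnight-length (12 h) culture, 23 nL compounds went on for 24 h at 37 °C. Readout used a luciferase detection reagent, luminescence taken after 12 min at room temperature.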
Potency is the fitted concentration of half-maximal effect.

Row | SMILES | Potency
1 | COc1ccc(-n2c(O)c(/C(C)=N/Nc3ccccc3)c(=O)[nH]c2=O)cc1 | inconclusive: 12.6 µM [inhibitor, single point]
2 | O=[N+]([O-])c1cc(S(=O)(=O)C(F)(F)F)ccc1Sc1nc2ccccc2s1 | inconclusive: 28.2 µM [inhibitor, single point]
3 | COC(=O)C1=C(c2cccc(C#N)c2)C[C@@H]2CC[C@H]1N2C(=O)NC1CC1 | inconclusive: 0.794 µM [inhibitor, full curve, poor fit]
4 | COc1cccc(C(=O)C2CCCN(Cc3ccccn3)C2)c1 (centres undefined) | inconclusive: 12.6 µM [inhibitor, single point]
5 | CN1C(=O)NC(=O)/C(=C\C=C\c2ccccc2[N+](=O)[O-])C1=O | inconclusive: 15.8 µM [inhibitor, single point]
6 | O=c1[nH]c2ccccc2n1C1CCN(C(c2cccs2)c2nnnn2Cc2ccccc2)CC1 (centres undefined) | inconclusive: 6.31 µM [inhibitor, partial curve, poor fit]
7 | O=C(COc1ccccc1)N1CCN(CC2CC3C=CC2C3)CC1 (centres undefined) | inactive
8 | CC(=O)O[C@H]1C(=O)[C@@]2(C)C([C@H](OC(=O)c3ccccc3)[C@]3(O)C[C@H](OC(=O)[C@H](O)[C@@H](NC(=O)Cc4ccccc4)c4ccccc4)C(C)=C1C3(C)C)[C@]1(OC(C)=O)CO[C@@H]1C[C@@H]2O (some centres undefined) | inconclusive: 15.8 µM [inhibitor, partial curve, poor fit]
9 | COc1ccc(-c2cn[nH]c2-c2ccc(OCc3ccccc3F)cc2O)cc1OC | inconclusive: 22.4 µM [inhibitor, single point]
10 | Cc1cccc(C(=O)Nc2ccc3c(c2)CC2(C(=O)N(C)C(=O)N(C)C2=O)C2CCCN32)c1 (centres undefined) | inconclusive: 7.94 µM [inhibitor, single point]
11 | O=C(CN1C(=O)S/C(=C\C=C\c2ccccc2)C1=O)Nc1cccc(O)c1 | inconclusive: 10 µM [inhibitor, single point]
12 | O=C(Cc1cccc2ccccc12)N/N=C/c1ccc2cccc(O)c2n1 | inconclusive: 10 µM [inhibitor, partial curve, poor fit]
13 | CN(C)CC1Oc2ccccc2OC1(O)c1ccccc1 (centres undefined) | inconclusive: 22.4 µM [inhibitor, single point]
14 | O=C1NC(=O)C(CCc2ccncc2)(Cc2cccc(Cl)c2Cl)C(=O)N1c1ccc(Br)cc1 (centres undefined) | inconclusive: 28.2 µM [inhibitor, single point]
15 | CN1C(=O)C(=Cc2sc(=O)n(-c3ccccc3)c2N(C)C)C(=O)N(C)C1=O | inconclusive: 28.2 µM [inhibitor, single point]
16 | CCc1ccccc1N1CC(c2nc3ccccc3n2CCC2CCCCC2)CC1=O (centres undefined) | inconclusive: 10 µM [inhibitor, partial curve, poor fit]
17 | O=C(NCCc1ccc(Cl)cc1)c1ccc2c(c1)N(Cc1ccc(F)cc1Cl)C(=O)CS2 | inconclusive: 11.2 µM [inhibitor, single point]
18 | CCC1(C)CC(CCNCc2ccc(N(C)C)cc2)(c2ccc(F)cc2)CCO1 (centres undefined) | inconclusive: 28.2 µM [inhibitor, single point]
19 | COc1ccc(C(O)c2cc(OC)ccc2OP(=O)(N(C)C)N(C)C)cc1 (centres undefined) | inactive
20 | COC(=O)C1=C(c2ccc(C(C)=O)cc2)C[C@@H]2CC[C@H]1N2C | inconclusive: 5.62 µM [inhibitor, full curve, poor fit]

Row | SMILES | Potency
21 | C[C@@H]1CN([C@H](C)CO)S(=O)(=O)c2ccc(C#Cc3ccccc3F)cc2O[C@H]1CN(C)C(=O)c1ccc2c(c1)OCO2 | inconclusive: 28.2 µM [inhibitor, single point]
22 | Cn1cc(/C=N/NC(N)=S)c2ccccc21 | inconclusive: 11.2 µM [inhibitor, single point]
23 | Cc1ccc(NC(=O)CSc2nc3ccccc3c3nc(CCn4cncc4C)nn23)cc1F | inconclusive: 10 µM [inhibitor, partial curve]
24 | COC1=CC(=O)c2c(ccc3ncnc(N)c23)C1=O | inconclusive: 2.24 µM [inhibitor, full curve]
25 | CCCCCCCSc1cc(OC)c(CCNC)cc1OC | inconclusive: 28.2 µM [inhibitor, single point]
26 | CCOc1ccc(NC(=O)CN(c2ccc([N+](=O)[O-])cc2)S(=O)(=O)c2ccccc2)cc1 | inconclusive: 8.91 µM [inhibitor, partial curve, poor fit]
27 | CN1CCN(CC#CCOc2ccc(Cl)cc2)CC1 | inactive
28 | CCOC(=O)[C@]12Cc3cc4ccccc4cc3[C@H]1N(Cc1ccccc1)C(=O)c1ccccc12 | inconclusive: 10 µM [inhibitor, single point]
29 | C#CCCC[C@@H]1OC(=O)CNC(=O)C([C@@H](C)CC)NC(=O)[C@@H]2CCCN2C(=O)C([C@@H](C)CC)OC(=O)[C@H](Cc2ccccc2)N(C)C(=O)[C@H](C(C)C)NC(=O)C1(C)C (some centres undefined) | inconclusive: 14.1 µM [inhibitor, single point]
30 | CCOC(=O)C1=C(O)c2ccccc2C(=O)/C1=C\c1ccc(C)cc1 | inconclusive: 28.2 µM [inhibitor, single point]
31 | Clc1ccc(Nc2ccc(NCc3ccccc3)nn2)cc1 | inconclusive: 10 µM [inhibitor, single point]
32 | Cn1c(=O)oc2cc(S(=O)(=O)N3CCC(C(=O)N4CC=C(c5ccccc5)CC4)CC3)ccc21 | inconclusive: 28.2 µM [inhibitor, single point]
33 | CN1CCN(Cc2ccccc2Sc2ccccc2)CC1 | inconclusive: 11.2 µM [inhibitor, single point]
34 | C/C(CC(=O)Nc1ccc(Cl)c(C(F)(F)F)c1)=N\NC(N)=S | inconclusive: 22.4 µM [inhibitor, single point]
35 | C[C@@H](NC(=O)c1nc[nH]c1C(=O)NCc1ccc(CNC(=O)OC(C)(C)C)cc1)c1ccccc1 | inconclusive: 31.6 µM [inhibitor, partial curve, poor fit]
36 | c1ccc(NC2=NCCCS2)cc1 | inconclusive: 20 µM [inhibitor, single point]
37 | Ic1ccccc1CN[C@@H]1C2CCN(CC2)[C@@H]1C(c1ccccc1)c1ccccc1 | inconclusive: 15.8 µM [inhibitor, single point]
38 | Cc1ccccc1OP(N)(=O)Oc1ccccc1C | inactive
39 | C[C@H]1[C@H](OC(=O)CCC(=O)NCc2ccc(C(=O)O)cc2)O[C@@H]2O[C@@]3(C)CC[C@H]4[C@H](C)CC[C@@H]1C24OO3 | inconclusive: 11.2 µM [inhibitor, single point]
40 | Cc1cc(N/N=C/c2ccc(O)c(C)c2O)nc(-c2ccccc2O)n1 | active: 10 µM

Row | SMILES | Potency
41 | NC(=S)NN=C(c1ccc(Br)cc1)C1CC1 | active: 2.51 µM
42 | Nn1c(SCc2cccc(F)c2)nnc1-c1cccnc1 | inconclusive: 22.4 µM [inhibitor, single point]
43 | COc1ccc(-[n+]2c(-c3ccccc3)cc(-c3ccc(C)cc3)cc2-c2ccccc2)cc1 | inconclusive: 2 µM [inhibitor, partial curve, poor fit]
44 | CC1Oc2cc3c(-c4c(O)cc(O)c5c(O)c6c(cc45)OC(C)C(C)C6=O)c(O)cc(O)c3c(O)c2C(=O)C1C (centres undefined) | inconclusive: 31.6 µM [inhibitor, single point]
45 | Cc1c(Cl)cccc1NC(=O)CN1C(=O)C(C)N=C(c2ccccc2)c2ccccc21 (centres undefined) | inactive
46 | CN(C)CCNc1cccc2sc3ccc(O)cc3c(=O)c12 | inconclusive: 28.2 µM [inhibitor, single point]
47 | CCc1ccc2nc(N=C(N)N)nc(C)c2c1 | inconclusive: 10 µM [inhibitor, partial curve, poor fit]
48 | O=C1C2=C(Nc3ccccc3SC2c2ccc(C(F)(F)F)cc2)c2ccccc21 (centres undefined) | inconclusive: 10 µM [inhibitor, single point]
49 | COC(=O)C1=C(c2ccc3ccccc3c2)C[C@@H]2CC[C@H]1N2C(=O)NCc1ccc(C(F)(F)F)cc1 | inactive
50 | CCOc1cccc(=NC2CCCCC2)c2c(C)n(C)c(C)c12 | inconclusive: 22.4 µM [inhibitor, single point]
51 | C/C(=N/Nc1nc(-c2ccccc2)cc(-c2ccc(F)cc2)n1)c1cccc(N)c1 | inconclusive: 12.6 µM [inhibitor, single point]
52 | CCOP(=O)(OCC)Oc1cc(C)c(N(C)C)c(C)c1 | inconclusive: 2.51 µM [inhibitor, partial curve, poor fit]
53 | CC(C)(C)c1ccc(C(=O)C2CCCN(C3CCC3)C2)cc1 (centres undefined) | inactive
54 | CC12CCC3C(CCC4(O)CC(O)CCC34C=O)C1(O)CCC2C1=CC(=O)OC1 (centres undefined) | inconclusive: 1 µM [inhibitor, full curve, poor fit]
55 | CCCCNCCOc1ccccc1-c1ccccc1 | inconclusive: 28.2 µM [inhibitor, single point]
56 | CN(C)C(CNC(=O)CCc1nc2cc(Cl)ccc2n(Cc2ccccc2)c1=O)c1ccccc1 (centres undefined) | inconclusive: 10 µM [inhibitor, single point]
57 | CCCCc1ccc(C2C3=C(CC(C)(C)CC3=O)NC3=C2C(=O)c2ccccc23)cc1 (centres undefined) | inconclusive: 10 µM [inhibitor, partial curve]
58 | COCCn1c(=NC(=O)c2ccc3c(c2)OCCO3)sc2cc(S(N)(=O)=O)ccc21 | inconclusive: 25.1 µM [inhibitor, single point]
59 | FC(F)(F)c1ccc(NC(=S)NCc2ccccc2)cc1 | inconclusive: 11.2 µM [inhibitor, single point]
